From article PMC11149917, “Translational and Therapeutic Evaluation of RAS-GTP Inhibition by RMC-6236 in RAS-Driven Cancers” (Cancer Discovery, 2024)
This continues a long series; more values of the same kind are listed elsewhere.

Test system: PRISM panel of 845 cancer cell lines
Assay: PRISM assay
Format: cell-based, human
Description: The PRISM cell set comprised 845 cell lines representing more than 45 lineages (see Supplementary Table S1 for cell line information), which largely overlapped with the Cancer Cell Line Encyclopedia; https://portals.broadinstitute.org/ccle). Cell lines were grown in RPMI without phenol red and supplemented with 10% or 20% FBS for adherent and suspended lines, respectively. Parental cell lines were stably infected with a unique 24-nucleotide DNA barcode via lentiviral transduction and blasticidin selection. After selection, barcoded cell lines were expanded and subjected to quality control (Mycoplasma contamination test, an SNP test for confirming cell line identity, and barcode ID confirmation). Approved cell lines were then pooled (20–25 cell lines per pool) based on doubling time similarity and frozen in assay-ready vials.
RMC-6236 was added to 384-well plates at 8-point concentration with 3-fold dilutions in triplicate. These assay-ready plates were then seeded with the thawed cell line pools. Adherent cell pools were plated at 1,250 cells per well, whereas suspension and mixed adherent/suspension pools were plated at 2,000 cells per well. Treated cells were incubated for 5 days, and then lysed. Lysate plates were collapsed together prior to barcode amplification and detection.
Each cell line's unique barcode is located in the 3′UTR of the blasticidin-resistance gene and therefore is expressed as mRNA. Total mRNA was captured using magnetic particles that recognize polyA sequences. Captured mRNA was reverse-transcribed into cDNA and then the sequence containing the unique PRISM barcode was amplified using PCR. Finally, Luminex beads that recognize the specific barcode sequences in the cell set were hybridized to the PCR products and detected using a Luminex scanner which reports the signal as a median fluorescent intensity (MFI).
• Each detection well contained 10 control barcodes in increasing abundances as spike-in controls. For each plate, we first create a reference profile by calculating the median of the log2(MFI) values across negative control wells for each of these spiked-in barcodes. • For each well, a monotonic smooth p-spline was fitted to map the spike-in control levels to the reference profile. Next, we transform the log2(MFI) for each cell barcode using the fitted spline to allow well-to-well comparisons by correcting for amplification and detection artifacts. • Next, the separability between negative and positive control treatments was assessed. In particular, we calculated the error rate of the optimum simple threshold classifier between the control samples for each cell line and plate combination. The error rate is a measure of the overlap of the two control sets and was defined as error = (FP + FN)/n, where FP is false positives, FN is false negatives, and n is the total number of controls. A threshold was set between the distributions of positive and negative control log2(MFI) values (with everything below the threshold said to be positive and above said to be negative) such that this value is minimized. Additionally, we also calculated the dynamic range of each cell line. […] Additionally, any cell line that had less than 2 passing replicates was also omitted for the sake of reproducibility. Finally, we computed viability by normalizing with respect to the median negative control for each plate.
For every gene with nonsilent mutations in at least four cell lines, we compared the AUC values between cells with and without those mutations using a t test. This analysis was carried out for (i) the full data set; (ii) excluding cell lines with nonsilent KRAS mutations; and (iii) excluding cell lines that have either KRAS or NRAS nonsilent mutations.

**Q.** What does the source list for `CCn1c(-c2cc(N3CCN(C)CC3)cnc2[C@H](C)OC)c2c3cc(ccc31)-c1csc(n1)C[C@H](NC(=O)[C@H]1C[C@@H]1C)C(=O)N1CCC[C@H](N1)C(=O)OCC(C)(C)C2` [RMC-6236]?
**A.** RMC-6236: RevMed PRISM: AUC (SNU1105_CENTRAL_NERVOUS_SYSTEM): 0.6864; RMC-6236: RevMed PRISM: AUC (SNU1196_BILIARY_TRACT): 0.9106; RMC-6236: RevMed PRISM: AUC (SNU1214_UPPER_AERODIGESTIVE_TRACT): 0.4564; RMC-6236: RevMed PRISM: AUC (SNU1544_LARGE_INTESTINE): 0.667; RMC-6236: RevMed PRISM: AUC (SNUC2A_LARGE_INTESTINE, KRAS p.G12D): 0.8752; RMC-6236: RevMed PRISM: AUC (SSP25_BILIARY_TRACT): 0.9443; RMC-6236: RevMed PRISM: AUC (SUDHL1_HAEMATOPOIETIC_AND_LYMPHOID_TISSUE): 0.5026; RMC-6236: RevMed PRISM: AUC (SUM149PT_BREAST): 0.5255; RMC-6236: RevMed PRISM: AUC (SUPT11_HAEMATOPOIETIC_AND_LYMPHOID_TISSUE): 1; RMC-6236: RevMed PRISM: AUC (SUSA_TESTIS): 0.6211; RMC-6236: RevMed PRISM: AUC (SW156_KIDNEY): 0.9098; RMC-6236: RevMed PRISM: AUC (SW480_LARGE_INTESTINE, KRAS p.G12V): 0.4385; RMC-6236: RevMed PRISM: AUC (SW620_LARGE_INTESTINE, KRAS p.G12V): 0.2672; RMC-6236: RevMed PRISM: AUC (SW756_CERVIX, KRAS p.G12C): 0.4293; RMC-6236: RevMed PRISM: AUC (SW780_URINARY_TRACT): 0.5849; RMC-6236: RevMed PRISM: AUC (SW837_LARGE_INTESTINE, KRAS p.G12C): 0.595; RMC-6236: RevMed PRISM: AUC (SW900_LUNG, KRAS p.G12V): 0.5248; RMC-6236: RevMed PRISM: AUC (SW948_LARGE_INTESTINE, KRAS p.Q61L): 0.4797; RMC-6236: RevMed PRISM: AUC (SW954_CERVIX): 0.6119; RMC-6236: RevMed PRISM: AUC (SW1088_CENTRAL_NERVOUS_SYSTEM): 0.7425; RMC-6236: RevMed PRISM: AUC (SW1116_LARGE_INTESTINE, KRAS p.G12A): 0.7333; RMC-6236: RevMed PRISM: AUC (SW1463_LARGE_INTESTINE, KRAS p.G12C): 0.2992; RMC-6236: RevMed PRISM: AUC (SW1573_LUNG, KRAS p.G12C): 0.6165; RMC-6236: RevMed PRISM: AUC (SW1783_CENTRAL_NERVOUS_SYSTEM): 0.8089; RMC-6236: RevMed PRISM: AUC (SW1990_PANCREAS, KRAS p.G12D): 0.8199; RMC-6236: RevMed PRISM: AUC (T3M5_THYROID): 0.8927; RMC-6236: RevMed PRISM: AUC (T3M10_LUNG, KRAS p.G12D): 0.8488; RMC-6236: RevMed PRISM: AUC (T24_URINARY_TRACT, HRAS p.G12V): 0.6445; RMC-6236: RevMed PRISM: AUC (T47D_BREAST): 0.8912; RMC-6236: RevMed PRISM: AUC (T84_LARGE_INTESTINE, KRAS p.G13D): 0.6008; RMC-6236: RevMed PRISM: AUC (T98G_CENTRAL_NERVOUS_SYSTEM): 0.7881; RMC-6236: RevMed PRISM: AUC (TALL1_HAEMATOPOIETIC_AND_LYMPHOID_TISSUE, NRAS p.G12D): 0.4239; RMC-6236: RevMed PRISM: AUC (TASK1_CENTRAL_NERVOUS_SYSTEM): 0.8516; RMC-6236: RevMed PRISM: AUC (TC71_BONE): 0.8332; RMC-6236: RevMed PRISM: AUC (TCCPAN2_PANCREAS, KRAS p.G12R): 0.5434; RMC-6236: RevMed PRISM: AUC (TE1_OESOPHAGUS): 0.8076; RMC-6236: RevMed PRISM: AUC (TE5_OESOPHAGUS): 0.5868; RMC-6236: RevMed PRISM: AUC (TE6_OESOPHAGUS): 0.5591; RMC-6236: RevMed PRISM: AUC (TE10_OESOPHAGUS): 0.6666; RMC-6236: RevMed PRISM: AUC (TE11_OESOPHAGUS): 0.7785; RMC-6236: RevMed PRISM: AUC (TE14_OESOPHAGUS): 0.6036; RMC-6236: RevMed PRISM: AUC (TE15_OESOPHAGUS): 0.3712; RMC-6236: RevMed PRISM: AUC (TEN_ENDOMETRIUM, KRAS p.T74P): 0.8739; RMC-6236: RevMed PRISM: AUC (TF1_HAEMATOPOIETIC_AND_LYMPHOID_TISSUE, NRAS p.Q61P): 0.3969; RMC-6236: RevMed PRISM: AUC (TGBC1TKB_BILIARY_TRACT): 0.946; RMC-6236: RevMed PRISM: AUC (TGBC18TKB_LARGE_INTESTINE): 0.7019; RMC-6236: RevMed PRISM: AUC (TGBC52TKB_BILIARY_TRACT, KRAS p.G12D): 0.5472
